The record followed here is the BET-seq Pho4 binding data (Le et al. 2018).

This is one part of the list. The energies were worked out here from pooled read counts, against the library average; single values are noisy.

For this assay, the target named is T1, Pho4 (S. cerevisiae) (UniProt P07270).
T1 sequence: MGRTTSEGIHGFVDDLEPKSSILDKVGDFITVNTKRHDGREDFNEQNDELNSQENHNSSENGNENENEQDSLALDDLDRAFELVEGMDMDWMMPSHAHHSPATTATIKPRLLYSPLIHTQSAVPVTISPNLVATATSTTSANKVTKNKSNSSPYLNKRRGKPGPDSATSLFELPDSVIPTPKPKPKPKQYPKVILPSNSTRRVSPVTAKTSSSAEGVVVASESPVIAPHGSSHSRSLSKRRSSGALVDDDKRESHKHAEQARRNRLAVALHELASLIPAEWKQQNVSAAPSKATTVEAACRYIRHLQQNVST
Description: relative binding free energy (BET-seq); higher = weaker binding. Conditions: reference: library average.
GCGATCACGTGGGTTT: the “relative binding free energy” value was found to be 0.17 kcal/mol.

Consider GTAGTCACGTGGCGGG, for which the “relative binding free energy” value turned out to be 0.18 kcal/mol.

In the case of TGGCACACGTGTGGAG, the “relative binding free energy” value was -0.06 kcal/mol. In the case of AAATGCACGTGTTTGG, the “relative binding free energy” value is -0.05 kcal/mol.

As for TGATTCACGTGAGGCG, the “relative binding free energy” value came out at 0.2 kcal/mol.

On to TTCGGCACGTGGTAGT, for which the “relative binding free energy” value was -0.09 kcal/mol. Turning to TTTGGCACGTGAGAGT, the “relative binding free energy” value is 0.16 kcal/mol. In the case of TGTTACACGTGAAAGC, the “relative binding free energy” value was 0.45 kcal/mol.

GTTTTCACGTGATCGA: the “relative binding free energy” value is 0.41 kcal/mol.

With TCGGTCACGTGTTATT, the “relative binding free energy” value is 0.25 kcal/mol.

Consider AAGAACACGTGTTGTG, for which the “relative binding free energy” value was -0.14 kcal/mol.

Consider GGTAGCACGTGTAGGT, for which the “relative binding free energy” value is -0.07 kcal/mol. As for GGGTGCACGTGGTAAT, the “relative binding free energy” value is 0 kcal/mol. Next, GAGGTCACGTGGTATA: 0.13 kcal/mol; AGAGACACGTGGGGAT: 0.03 kcal/mol. For the sequence GTGTCCACGTGAGTGT, the “relative binding free energy” value came out at 0.08 kcal/mol. Turning to ATTAGCACGTGGTAGT, the “relative binding free energy” value was -0.09 kcal/mol. Consider TGTGCCACGTGGGGTA, for which the “relative binding free energy” value is -0.42 kcal/mol. Turning to TTTTTCACGTGGGCAA, the “relative binding free energy” value was determined as 0.23 kcal/mol. With GAGCGCACGTGGGCGT, the “relative binding free energy” value is -0.2 kcal/mol.

For TGAAACACGTGGTATG, the “relative binding free energy” value was -0.12 kcal/mol. Next, TCTGACACGTGGTGAG: -0.02 kcal/mol. For the sequence TGTGGCACGTGTAGAG, the “relative binding free energy” value was -0.13 kcal/mol. On to TAGAACACGTGGGTAT, for which the “relative binding free energy” value was -0.14 kcal/mol. Next, GGATACACGTGCAGTT: 0.22 kcal/mol. On to GGGGACACGTGGCGTT, for which the “relative binding free energy” value was 0.04 kcal/mol. Consider CGTCTCACGTGGGTTG, for which the “relative binding free energy” value amounted to 0.11 kcal/mol. Take ATTGACACGTGGGAAG: the “relative binding free energy” value is 0.07 kcal/mol. Next, TGTGTCACGTGGCTAT: -0.02 kcal/mol; ATTCTCACGTGCTTTT: 0.22 kcal/mol; TGTTGCACGTGAGCAT: 0.21 kcal/mol.

Regarding GTTTCCACGTGTGGGT, the “relative binding free energy” value was found to be 0.11 kcal/mol. Next, AGGGACACGTGGATGG: -0.04 kcal/mol; TTTGGCACGTGACGAG: 0.04 kcal/mol; GGGGCCACGTGATATT: 0.15 kcal/mol. GAATGCACGTGGTGTC: the “relative binding free energy” value was -0.08 kcal/mol. As to ACTGACACGTGAGGGG, the “relative binding free energy” value is 0.14 kcal/mol. For the sequence AGCTACACGTGAGGTT, the “relative binding free energy” value was determined as 0.3 kcal/mol. On to GTGGACACGTGGTGCG, for which the “relative binding free energy” value came to 0.07 kcal/mol.

CGCGGCACGTGGTTTG: the “relative binding free energy” value is -0.15 kcal/mol. Take TGGTGCACGTGCTTCG: the “relative binding free energy” value came out at 0.01 kcal/mol. For CGGGACACGTGGGAAT, the “relative binding free energy” value turned out to be 0.07 kcal/mol. As for AATTGCACGTGTTGAA, the “relative binding free energy” value is 0.04 kcal/mol. Next, AAGTCCACGTGGGTTA: -0.07 kcal/mol; CTTGGCACGTGCAGGA: -0.05 kcal/mol. GGTTGCACGTGATCTG: the “relative binding free energy” value amounted to 0.08 kcal/mol.

On to TGGAGCACGTGGACGA, for which the “relative binding free energy” value was -0.03 kcal/mol. On to TGCGTCACGTGGTGTG, for which the “relative binding free energy” value turned out to be 0.08 kcal/mol. With TTTCTCACGTGATTTG, the “relative binding free energy” value is 0.36 kcal/mol. Turning to CGTTCCACGTGGCGGT, the “relative binding free energy” value was -0.03 kcal/mol. Next, AATGTCACGTGTTCGG: -0.07 kcal/mol; AAGGTCACGTGGGTAA: -0.15 kcal/mol. Regarding GGGCCCACGTGTCGGG, the “relative binding free energy” value was determined as 0.02 kcal/mol. As to ATTGGCACGTGCGAGT, the “relative binding free energy” value was -0.21 kcal/mol.

For GTTTCCACGTGTGATA, the “relative binding free energy” value stood at 0.24 kcal/mol.

In the case of GCTGTCACGTGTGGCA, the “relative binding free energy” value was 0.13 kcal/mol.

Take TATGTCACGTGGTACG: the “relative binding free energy” value turned out to be 0.03 kcal/mol. As to TGACGCACGTGGTGGA, the “relative binding free energy” value is -0.07 kcal/mol. CTGTCCACGTGTGGTT: the “relative binding free energy” value was -0.03 kcal/mol. For TGGGACACGTGTAAGG, the “relative binding free energy” value worked out at 0 kcal/mol. Next, TGTGTCACGTGGGTTA: -0.08 kcal/mol; ATGTGCACGTGTACAG: 0.03 kcal/mol. With TTTTTCACGTGTTGAG the figure was 0.35 kcal/mol; with CGTTGCACGTGGGGTC, -0.18 kcal/mol; with TTTTTCACGTGGCTAT, 0.22 kcal/mol. With GGCGGCACGTGGACGG, the “relative binding free energy” value is 0 kcal/mol. AGGAACACGTGCGGGC: the “relative binding free energy” value is 0.06 kcal/mol.

With TATTACACGTGGTGGA, the “relative binding free energy” value was determined as 0.02 kcal/mol.

For the sequence ATATGCACGTGGGGCA, the “relative binding free energy” value is -0.25 kcal/mol. In the case of AGATACACGTGGGGCA, the “relative binding free energy” value is -0.11 kcal/mol. Next, GGAGGCACGTGAAATT: 0.21 kcal/mol. Take TGGGACACGTGATGTT: the “relative binding free energy” value came out at 0.19 kcal/mol. As for GGAATCACGTGGTCTG, the “relative binding free energy” value was found to be 0.01 kcal/mol. In the case of TTATTCACGTGGAGGA, the “relative binding free energy” value was determined as 0.16 kcal/mol. For the sequence TATGGCACGTGGCTGA, the “relative binding free energy” value was -0.15 kcal/mol. For AAAGGCACGTGGGGTA, the “relative binding free energy” value was -0.33 kcal/mol.

Consider TTGCGCACGTGATATT, for which the “relative binding free energy” value is -0.01 kcal/mol.

With GGAGTCACGTGGAATA, the “relative binding free energy” value turned out to be 0.27 kcal/mol. With TTATACACGTGTTAGT, the “relative binding free energy” value was 0.11 kcal/mol.

For ACGAGCACGTGGTGGG, the “relative binding free energy” value is -0.12 kcal/mol. In the case of ATTCGCACGTGTTGTT, the “relative binding free energy” value is -0.03 kcal/mol.

TTATGCACGTGTAATT: the “relative binding free energy” value was found to be 0.03 kcal/mol. For ATAATCACGTGGTGTG, the “relative binding free energy” value is -0.02 kcal/mol. As to GGGGACACGTGACTTG, the “relative binding free energy” value came to 0.18 kcal/mol.

Turning to TTCAACACGTGGATGG, the “relative binding free energy” value was determined as 0.02 kcal/mol. Next, GGTTGCACGTGAAGGA: 0.43 kcal/mol; AAGGTCACGTGTAACG: 0.24 kcal/mol; ATGAGCACGTGGGTAG: -0.24 kcal/mol. As for ATTTACACGTGTACAG, the “relative binding free energy” value is 0.23 kcal/mol. Next, GAAGGCACGTGTAAGT: 0.09 kcal/mol.

Turning to TCGGGCACGTGAAATG, the “relative binding free energy” value was found to be 0.08 kcal/mol. Next, TTGGGCACGTGATGTA: 0.02 kcal/mol. Turning to AGTACCACGTGTTGGT, the “relative binding free energy” value was -0.06 kcal/mol. In the case of TGCTGCACGTGGTAAT, the “relative binding free energy” value is -0.06 kcal/mol. With GTTGCCACGTGTGATA the figure was 0.2 kcal/mol; with AAGAGCACGTGGTTAT, -0.33 kcal/mol. As to GGCGGCACGTGGGTAG, the “relative binding free energy” value was -0.19 kcal/mol.

GTTGACACGTGGTCAT: the “relative binding free energy” value was -0.01 kcal/mol. As to CGAATCACGTGGGGGT, the “relative binding free energy” value came out at 0.01 kcal/mol. As to TATTCCACGTGGGAAT, the “relative binding free energy” value is 0.17 kcal/mol. On to TTGTGCACGTGGTCTA, for which the “relative binding free energy” value was -0.22 kcal/mol. With TTTGTCACGTGTGCGC the figure was 0.07 kcal/mol; with ATTGACACGTGCAGGG, -0.05 kcal/mol; with CAGCTCACGTGGGGTG, -0.01 kcal/mol. With GTAGCCACGTGATGTG the figure was 0.03 kcal/mol; with GGTAACACGTGTAGAT, 0.28 kcal/mol; with ATAAACACGTGGTAGT, -0.16 kcal/mol. Take TTGCGCACGTGGGAGG: the “relative binding free energy” value was -0.14 kcal/mol. In the case of AAGGTCACGTGTAGGG, the “relative binding free energy” value was 0.04 kcal/mol. Turning to TGTACCACGTGAGTAT, the “relative binding free energy” value was 0.32 kcal/mol. TTGGTCACGTGTACGA: the “relative binding free energy” value is 0.17 kcal/mol. Regarding GAATGCACGTGTTATG, the “relative binding free energy” value was 0.01 kcal/mol. CGGGTCACGTGGCTTG: the “relative binding free energy” value was -0.11 kcal/mol. With TTTTACACGTGACGGA, the “relative binding free energy” value was 0.25 kcal/mol. For the sequence GTACACACGTGTGGGA, the “relative binding free energy” value was determined as 0.08 kcal/mol.
